Screen size: about 310,000 compounds; about 2,200 (0.71%) showed an effect of 50% or more. Effects have a minus sign here. Some of the results follow.
Each compound was assayed against human ether-à-go-go-related gene (hERG) potassium channel (human, UniProt Q12809) (assay: primary screen, population patch clamp on CHO cells stably expressing hERG).
Chain of human ether-à-go-go-related gene (hERG) potassium channel (Q12809 whole entry, looked up): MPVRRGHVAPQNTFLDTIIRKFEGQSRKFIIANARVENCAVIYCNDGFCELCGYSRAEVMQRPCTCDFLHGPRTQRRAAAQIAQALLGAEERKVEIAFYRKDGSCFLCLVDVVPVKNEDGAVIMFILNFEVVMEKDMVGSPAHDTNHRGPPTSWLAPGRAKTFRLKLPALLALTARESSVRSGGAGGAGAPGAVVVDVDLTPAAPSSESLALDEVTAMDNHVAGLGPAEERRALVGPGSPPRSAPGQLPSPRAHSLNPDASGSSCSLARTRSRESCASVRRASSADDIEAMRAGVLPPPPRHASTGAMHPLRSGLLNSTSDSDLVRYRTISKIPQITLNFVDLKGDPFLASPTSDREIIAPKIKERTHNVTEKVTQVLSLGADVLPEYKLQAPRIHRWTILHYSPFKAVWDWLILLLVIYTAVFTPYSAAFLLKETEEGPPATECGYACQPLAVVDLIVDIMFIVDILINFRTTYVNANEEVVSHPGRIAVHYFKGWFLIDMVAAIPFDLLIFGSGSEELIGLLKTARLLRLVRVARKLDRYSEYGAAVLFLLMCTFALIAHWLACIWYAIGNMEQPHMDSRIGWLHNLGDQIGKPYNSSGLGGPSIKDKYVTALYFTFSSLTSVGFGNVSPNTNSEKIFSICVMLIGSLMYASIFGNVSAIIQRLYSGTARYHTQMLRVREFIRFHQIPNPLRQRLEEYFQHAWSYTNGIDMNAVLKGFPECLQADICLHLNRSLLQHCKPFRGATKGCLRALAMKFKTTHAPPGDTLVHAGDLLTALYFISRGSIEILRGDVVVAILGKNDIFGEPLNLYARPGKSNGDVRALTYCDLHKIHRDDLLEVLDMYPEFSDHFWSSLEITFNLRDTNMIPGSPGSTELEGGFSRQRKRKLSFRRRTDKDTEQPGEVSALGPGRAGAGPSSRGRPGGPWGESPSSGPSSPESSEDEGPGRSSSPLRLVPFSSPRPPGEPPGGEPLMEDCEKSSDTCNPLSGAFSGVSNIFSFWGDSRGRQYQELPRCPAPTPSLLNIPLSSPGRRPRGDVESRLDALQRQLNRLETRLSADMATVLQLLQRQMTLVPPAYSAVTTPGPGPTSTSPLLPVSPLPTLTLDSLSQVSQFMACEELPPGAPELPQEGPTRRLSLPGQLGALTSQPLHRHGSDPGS

Row | Structure (SMILES) | hERG current change (%, negative = inhibition) at 1uM [%]
1 | O=C(CSc1nnc(CNC(=O)c2c(F)cccc2Cl)o1)NCc1ccc2c(c1)OCO2 | -18.9
2 | CCCCC(CC)C(=O)Nc1cc(=O)[nH]c2nc3ccccc3n12 (centres unmarked) | 13.2
3 | O=C(NCc1ccc(C(=O)O)cc1)OCc1ccccc1 | 8.25
4 | O=C(CSCc1cnn(-c2ccccc2)c1-n1cccc1)NCCN1CCOCC1 | 1.44
5 | Cc1ccc(OCC(=O)NC2CCCC(C)C2C)c([N+](=O)[O-])n1 (centres unmarked) | 18.3
6 | COc1ccc2cc3c(N)c(C(=O)N4CCCC4)sc3nc2c1 | -9.27
7 | CC(C)c1ccc(-n2cnn(-c3ncccc3[N+](=O)[O-])c2=O)cc1 | 3.95
8 | CCOc1cc2[nH]c(=O)n(CCCCC(=O)N3CCCCCC3)c(=O)c2cc1OCC | 8.63
9 | CN(C)CCSc1nc(O)c(-c2ccccc2)c(=O)n1-c1ccccc1 | 10.6
10 | N#Cc1cn(CC(=O)N2CCCc3ccccc32)c2ccccc12 | 4.08
11 | COc1ccc(NC(=O)c2cc3c(-c4ccc(OC)c(OC)c4)nn(C)c3s2)cc1OC | 5.64
12 | CCc1sc(C(=O)NCCc2ccc(S(N)(=O)=O)cc2)cc1C | 4.22
13 | C/C(N)=C(/C#N)C(=O)CSc1nnc(Nc2ccccc2)s1 | 12.2
14 | COc1ccc(C(=O)NNC(=S)NC(=O)c2ccc(OC)cc2)cc1 | 20.2
15 | O=C(N/N=C/c1ccc(OC(F)F)cc1OC(F)F)NC1CCCCC1 | 14.9
16 | CCc1ccccc1NC(=S)N1CCN(c2ccccc2F)CC1 | -0.145
17 | COC(=O)Cc1cccc2c(=O)c3ccccc3oc12 | 38
18 | CC1CCN(C(=O)Cn2cc3c(n2)CCCC3)CC1 | 2.13
19 | CC1CN(CC(O)COc2ccccc2C(C)(C)C)CC(C)O1.Cl (centres unmarked) | 1.91

Row | Structure (SMILES) | hERG current change (%, negative = inhibition) at 1uM [%]
20 | COCCn1c(=O)[nH]c2cc(C(=O)NCc3cccnc3)ccc2c1=O | -2.73
21 | CC(Sc1nnc(-c2ccco2)o1)C(=O)NCCC1=CCCCC1 (centres unmarked) | 7.17
22 | COc1ccc(CCNC(=O)CSc2nnc(CNC(=O)c3cccs3)o2)cc1OC | 3.28
23 | COc1ccc(-c2cc(C(=O)N3CCN(C(c4ccccc4)c4ccccc4)CC3)no2)cc1OC | -5.49
24 | CCOC(=O)c1[nH]c(C)c(C(=O)OCC(=O)N(Cc2ccccc2)C(C)C)c1C | 2.82
25 | Cc1cc(S(=O)(=O)NCCC2=CCCCC2)ccc1Br | -3.15
26 | COC(=O)[C@@]1(Cc2ccc(OC)cc2)[C@H]2c3cc(C(=O)N(C)C)n(CCc4ccc(OC)c(Br)c4)c3C[C@H]2CN1C(=O)c1ccccc1 | 18
27 | CN(C(=O)COC(=O)c1ccc(NS(=O)(=O)c2cccs2)cc1)C1CCCCC1 | 0.305
28 | CC(=O)c1ccc(NC(=O)CCC(=O)OCC(F)(F)C(F)F)cc1 | -1.69
29 | Cc1cc(C)c(NC(=O)COC(=O)C2=COCCO2)c(Cl)c1 | 14.2
30 | O=C(O)CSCc1ccc(Cl)cc1 | 13.6
31 | O=C(c1c[nH]c2ccccc12)C(Cl)c1ccccc1 (centres unmarked) | 13.8
32 | C=CCOc1nc2c(c(=O)n(Cc3ccc(Cl)cc3)c(=O)n2C)n1C | 9.92
33 | CCC1(C(=O)OC)NC(c2ccco2)C2C(=O)N(c3ccccc3)C(=O)C21 (centres unmarked) | 7.48
34 | O=C(c1ccc(Cl)s1)N1CCN(C23CC4CC(CC(C4)C2)C3)CC1 | 5.12
35 | Clc1ccc(-c2nnc(-c3ccco3)o2)cc1 | 9.8
36 | COc1ccc(-c2csc(NCc3ccco3)n2)cc1C | 12
37 | O=C(OCC(=O)N1CCN(c2ccccc2)CC1)c1cc(Cl)ccc1[N+](=O)[O-] | -6.32
38 | C=CCN=C(C)C1=C(O)C(C)OC1=O (centres unmarked) | 17.1

Row | Structure (SMILES) | hERG current change (%, negative = inhibition) at 1uM [%]
39 | O=C(CN1CCCCC1)NNC(=O)c1ccc([N+](=O)[O-])cc1 | 11.4
40 | Cc1ccccc1-n1cc(C(=O)c2cc(Cl)ccc2O)cc(C#N)c1=O | 11.1
41 | CC(Nc1nc(=S)nc(Nc2ccc(F)cc2)[nH]1)c1ccccc1 (centres unmarked) | 15.9
42 | O=C(CS(=O)c1ccc(F)cc1)Nc1ccccc1Cl (centres unmarked) | 12.7
43 | CCCCCn1c(CN2CCN(C(=O)OCC)CC2)nc2c1c(=O)n(C)c(=O)n2C | -3.02
44 | CCC/C(C)=C/c1ccc(CC)cn1 | 11.3
45 | COc1ccc(/C=N\NC(=O)c2ccc([N+](=O)[O-])c(C)c2)cc1COc1ccccc1C(N)=O | 20.4
46 | N#CC1(P(=O)(c2ccccc2)c2ccccc2)CC1 | 1.28
47 | O=C(NCc1ccccc1C(F)(F)F)C1CC(O)CN1C(=O)Nc1ccccc1 (centres unmarked) | 15.8
48 | Cc1cccc(Nc2nnc(SCC(=O)c3c(N)n(C4CC4)c(=O)[nH]c3=O)s2)c1C | 9.07
49 | O=C(Nc1ccc(C(F)(F)F)cc1)C1(c2ccccc2)CC1 | 5.32
50 | CC(C)(C)NC(=O)C(c1ccccn1)N(C(=O)C1CSC(=O)C1)c1cccc(F)c1 (centres unmarked) | 14.9
51 | Cc1cccc(OCC(=O)Nc2ccc(N3CCN(C(=O)c4ccco4)CC3)cc2)c1 | -6.73
52 | O=C(O)/C=C/C(=O)Nc1ccc2nccnc2c1 | 18.4
53 | OCCNc1nc(-c2ccccc2)nc2c1oc1ccccc12 | 6.62
54 | COc1ccc(C)cc1Nc1n[n+](-c2ccccc2)c(-c2c(OC)ccc3ccccc23)s1.[Cl-] | -7.05
55 | COc1ccc(OC)c(C2C(C(=O)c3ccc(C)o3)=C(O)C(=O)N2CCN2CCOCC2)c1 (centres unmarked) | 19.3
56 | O=c1cc(-c2ccc(O)c(O)c2)oc2cc(O)c(C3OC(CO)C(O)C(O)C3O)c(O)c12 (centres unmarked) | 5.2
